Measured values reported in PubChem BioAssay AID504339 (National Center for Advancing Translational Sciences (NCATS), 2011).
The campaign covered roughly 390,000 compounds. About 17,000 (4.4%) were called active. This list was built around the results that the source calls inconclusive (neither active nor inactive); the mix of calls is not that of the screen. The call rests on the fitted dose curve; in most records, active means well fitted inhibition curve with a large enough effect; inconclusive means small, poorly fitted or top-dose-only effect; inactive means no such curve, though single readings can be large or run the other way. Potencies of inconclusive entries are doubtful fits and often do not repeat.
Further: nearly all actives have a fitted effect of over 50% in size.
On the % scale 0 is the no-effect control and ±100 the full control effect; potency means the concentration at half of the fitted maximal effect; tags describe the fitted curve by direction and shape.

What follows are compounds tested against Lysine-specific demethylase 4A (Homo sapiens) (UniProt O75164) (assay: qHTS Assay for Inhibitors of JMJD2A-Tudor Domain). Conditions: AlphaScreen JMJD2A-Tudor / H3K4me3 peptide binding; activity change, negative = inhibition: at 114 µM (top of the series).
Chain of UniProt O75164 (O75164 whole entry, looked up, the tested form may be a part): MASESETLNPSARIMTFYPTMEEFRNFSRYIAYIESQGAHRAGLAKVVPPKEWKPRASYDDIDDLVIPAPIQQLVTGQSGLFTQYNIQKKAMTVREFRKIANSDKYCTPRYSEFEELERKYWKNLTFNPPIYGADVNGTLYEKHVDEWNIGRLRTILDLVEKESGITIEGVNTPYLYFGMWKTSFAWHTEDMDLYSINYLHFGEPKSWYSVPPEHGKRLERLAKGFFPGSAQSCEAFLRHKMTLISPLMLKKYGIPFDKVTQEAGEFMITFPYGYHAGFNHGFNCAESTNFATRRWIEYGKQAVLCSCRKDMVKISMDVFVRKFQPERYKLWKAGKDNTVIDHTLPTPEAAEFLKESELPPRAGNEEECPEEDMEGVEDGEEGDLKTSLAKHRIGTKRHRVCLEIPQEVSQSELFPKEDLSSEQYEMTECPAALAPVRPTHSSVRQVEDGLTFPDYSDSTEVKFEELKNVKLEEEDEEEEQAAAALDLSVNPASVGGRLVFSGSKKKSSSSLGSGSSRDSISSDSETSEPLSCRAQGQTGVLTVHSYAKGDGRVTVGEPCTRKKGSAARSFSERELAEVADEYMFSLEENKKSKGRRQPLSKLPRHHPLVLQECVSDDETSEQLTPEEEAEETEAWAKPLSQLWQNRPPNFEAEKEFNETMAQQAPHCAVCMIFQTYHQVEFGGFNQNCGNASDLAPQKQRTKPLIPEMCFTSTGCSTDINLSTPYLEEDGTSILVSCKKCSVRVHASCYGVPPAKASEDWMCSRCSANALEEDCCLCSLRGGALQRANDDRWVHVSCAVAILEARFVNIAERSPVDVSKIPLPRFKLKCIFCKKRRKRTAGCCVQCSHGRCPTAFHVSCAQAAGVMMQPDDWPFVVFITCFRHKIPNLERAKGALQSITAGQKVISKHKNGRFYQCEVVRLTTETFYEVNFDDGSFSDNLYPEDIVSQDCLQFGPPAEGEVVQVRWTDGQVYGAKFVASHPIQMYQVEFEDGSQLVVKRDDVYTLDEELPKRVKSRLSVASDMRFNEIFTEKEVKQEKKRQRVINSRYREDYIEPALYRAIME
In the case of `CN(C)c1ccc(/C=C/C(=O)c2ccccc2O)cc1`, the Potency is reported as active: 10 µM. With `CC(C)(C)OC(=O)NCCc1n[nH]c(=S)o1` the Potency was inconclusive: 89.1 µM [inhibitor, single point]. For `Cn1c(=O)c2c(nc(N3CCCCCC3)n2Cc2cccc3ccccc23)n(C)c1=O`, the Potency was inconclusive: 28.2 µM [inhibitor, partial curve]. In the case of `Cn1c(=O)c2c(ncn2CC(=O)N/N=C/C=C/c2ccccc2)n(C)c1=O`, the Potency is reported as active: 39.8 µM. `CCN1/C(=C/C=C/c2oc3ccc(-c4ccccc4)cc3[n+]2CC)Oc2ccc(-c3ccccc3)cc21` was tested, and the Potency was inconclusive: 89.1 µM [inhibitor, single point]. For `COc1cccc(/C=N/NC(=O)c2c(C)nc3ccc(Br)cn23)c1O`, the Potency was active: 35.5 µM. For `COC(=O)c1c(NC(=O)/C=C/C(=O)O)sc(C)c1-c1ccc(C(C)C)cc1`, the “activity change, negative = inhibition” value was inactive: -29.1%. With `CCN1CCc2c(sc(-n3cccc3)c2C(C)NC(=O)Nc2ccc(C(=O)OC)cc2)C1` (stereo not given) the Potency was inconclusive: 50.1 µM [inhibitor, partial curve]. With `COC(=O)c1c(C)oc2ccc(N(C(=O)c3ccncc3)S(=O)(=O)c3ccc(Br)cc3)cc12` the Potency was inconclusive: 56.2 µM [inhibitor, partial curve]. `CC1(C)OC2CC3C4CC=C5CC(O)CCC5(C)C4CCC3(C)C2(C(=O)CO)O1` (stereo not given) was tested, and the “activity change, negative = inhibition” value was inactive: -3.45%. For `CCOc1ccc(NCCC(=O)c2ccc3c(c2)OCO3)cc1`, the Potency was active: 39.8 µM. In the case of `O=C(O)c1ccc(N2CCN(Cc3ccc4c(c3)OCO4)CC2)c([N+](=O)[O-])c1`, the Potency is reported as inconclusive: 0.891 µM [inhibitor, full curve]. In the case of `CCOC(=O)Nc1ccc2c(c1)N(C(=O)CCN1CCN(C)CC1)c1ccccc1S2`, the Potency is reported as inconclusive: 79.4 µM [inhibitor, single point]. For `COc1cc(CNc2ccccc2SC)cc(OC)c1OC`, the Potency was inconclusive: 89.1 µM [inhibitor, single point]. With `Cn1nnc(NC(=S)NC(=O)c2ccco2)n1` the Potency was inconclusive: 1 µM [inhibitor, full curve, poor fit]. In the case of `O=C(NCCc1cccc(Cl)c1)c1cccc([N+](=O)[O-])c1`, the “activity change, negative = inhibition” value is reported as inactive: -19.2%. In the case of `O=C(/C=C/c1ccc([N+](=O)[O-])cc1)NC1CC2CCC1C2` (stereo not given), the Potency is reported as inconclusive: 12.6 µM [inhibitor, full curve]. For `COc1cc(OC)c(NS(=O)(=O)c2ccc3c(c2)NC(=O)CO3)cc1Cl`, the Potency was active: 15.8 µM. With `COCCCNC(=S)NNC(=O)c1cc(Cl)c(O)c(Cl)c1` the “activity change, negative = inhibition” value was inactive: -0.702%. With `COc1cccc(C2c3c(ncn(-c4ccccn4)c3=N)Oc3ccc4ccccc4c32)c1` (stereo not given) the Potency was inconclusive: 39.8 µM [inhibitor, partial curve]. `Cc1ccc(S(=O)(=O)N2CC=C(C(=O)NC3CCCC3)CC2)cc1` was tested, and the Potency was inconclusive: 17.8 µM [inhibitor, full curve, poor fit]. `CCNC(=S)NS(=O)(=O)c1ccc(C)cc1` was tested, and the “activity change, negative = inhibition” value was inactive: -34%. In the case of `S=C(c1cn(CCOc2cccc3ccccc23)c2ccccc12)N1CCCC1`, the Potency is reported as inconclusive: 25.1 µM [inhibitor, partial curve]. For `CCc1nc2nc(C)c(NS(=O)(=O)c3ccc(Br)s3)c(=O)n2[nH]1`, the Potency was inconclusive: 1.26 µM [inhibitor, full curve, poor fit]. In the case of `Cc1ccc2cc(CN(Cc3ccco3)C(=S)NCC3CCCO3)c(=O)[nH]c2c1C` (stereo not given), the Potency is reported as inconclusive: 63.1 µM [inhibitor, partial curve]. For `COCCN(C(=S)Nc1ccc(C)c(C)c1)C(C)c1ccco1` (stereo not given), the “activity change, negative = inhibition” value was inactive: 0.68%. `O=C(COc1ccccc1)Nc1nnc(-c2ccco2)o1` was tested, and the Potency was active: 14.1 µM. With `Cc1c(CNC2CCCCCC2)c(C(=O)O)c(C)n1Cc1cccc(Cl)c1` the Potency was inconclusive: 12.6 µM [inhibitor, full curve]. `COc1cccc(CN(C(=O)Cc2c[nH]c3ccccc23)C(C(=O)NC2CCCCC2)c2ccc(C)o2)c1` (stereo not given) was tested, and the Potency was inconclusive: 31.6 µM [inhibitor, single point]. In the case of `Cc1ccc(S(=O)(=O)N2CCCC(C(=O)NCC3CCCO3)C2)cc1` (stereo not given), the “activity change, negative = inhibition” value is reported as inactive: -3.87%. With `Cc1cc(Cl)c(OCCCNCc2ccccc2)c(Br)c1` the Potency was inconclusive: 2.82 µM [inhibitor, full curve, poor fit]. In the case of `CCCOc1ccc(/C(O)=C2/C(=O)C(=O)N(CCN(C)C)C2c2ccc(O)c(OC)c2)cc1` (stereo not given), the “activity change, negative = inhibition” value is reported as inactive: -29.4%. In the case of `Cc1ccc(Cl)c(Nc2ccccc2C(=O)O)c1Cl`, the Potency is reported as “inactive”. With `S=c1oc(-c2ccncc2)nn1CCc1ccncc1` the “activity change, negative = inhibition” value was inactive: -19.4%. In the case of `CCOC(=O)c1c(S(=O)(=O)N2CCCC(C(=O)Nc3cccc(CC)c3)C2)c(C)n(CC)c1C` (stereo not given), the “activity change, negative = inhibition” value is reported as inactive: -16%. In the case of `Cn1c(N)c(C(=O)Nc2ccccc2)c(=O)[nH]c1=O`, the “activity change, negative = inhibition” value is reported as inactive: -12.4%. In the case of `CC(C)Oc1ccc(Cn2c(-c3ccco3)n[nH]c2=S)cc1`, the Potency is reported as active: 39.8 µM. For `CC(=O)Nc1cccc(NC(=O)C(=O)NCC(c2ccco2)N2CCc3ccccc32)c1` (stereo not given), the Potency was active: 56.2 µM. In the case of `COc1ccccc1C1/C(=C(/O)c2ccccc2)C(=O)C(=O)N1CC(C)O` (stereo not given), the Potency is reported as inconclusive: 79.4 µM [inhibitor, single point]. For `O=[N+]([O-])c1ccc2c(c1Nc1ccccc1Cl)=NC1(CCCCC1)N=2`, the Potency was inconclusive: 63.1 µM [inhibitor, partial curve, poor fit]. `CCCCn1c(N)c(N(CC(C)C)C(=O)CCCc2cccs2)c(=O)[nH]c1=O` was tested, and the “activity change, negative = inhibition” value was inactive: -5.56%. `CC(=O)Nc1ccc(NC(=O)C(C)OC(=O)c2ccc(OCc3c(C)noc3C)cc2)cc1` (stereo not given) was tested, and the Potency was inconclusive: 22.4 µM [inhibitor, full curve]. In the case of `CC(C)C[C@H]1CN([C@@H](CC(C)C)CN2CCCC2CN2C(=S)NC[C@@H]2Cc2ccc(O)cc2)C(=S)N1CC1CCCCC1` (stereo not given in full), the Potency is reported as inconclusive: 14.1 µM [inhibitor, partial curve]. `CCOc1c(Cl)cc(CNc2ccc3[nH]c(=O)[nH]c3c2)cc1OC` was tested, and the Potency was inconclusive: 12.6 µM [inhibitor, full curve, poor fit]. With `CCN(CC)CCCNC(=O)c1ccc2c(c1)sc1nc(-c3ccc(C)cc3)cn12` the Potency was inconclusive: 89.1 µM [inhibitor, partial curve].
